# Experimental data reported in article PMC5836133.
# The list shows a part of the results. At the low end of the ranking the order means little.
# System: T1, GST-NbGlk1(82-244)
# T1 sequence: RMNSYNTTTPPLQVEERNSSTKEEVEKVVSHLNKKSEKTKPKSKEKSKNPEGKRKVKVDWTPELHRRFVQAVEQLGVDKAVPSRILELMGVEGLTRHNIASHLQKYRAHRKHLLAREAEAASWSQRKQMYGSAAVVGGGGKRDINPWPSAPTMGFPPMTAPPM
# Assay: protein-binding microarray;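 note: rank-based score ranging −0.5 to +0.5 with E above 0.45 taken as significant binding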
# Conditions: NbGlk1 is a Golden2-like transcription factor of Nicotiana benthamiana; high values mean tight binding; most listed sequences are background and not binding sites; double strand, one strand shown
row,Sequence,binding signal [E-score]
1,ACTTCCTA,-0.0434
2,AGTTTATG,-0.0296
3,AAGGAGCG,-0.0899
4,AAACGGTA,0.0389
5,ATGGCGTG,-0.047
6,AGACGACA,-0.154
7,AGATTTCA,0.467
8,ACAACTAT,0.0731
9,AGTTTCAG,0.0119
10,ATGTGAGG,-0.0259
11,ACAATTAT,0.106
12,AAGGGGGC,-0.198
13,ACAGTATG,-0.0588
14,AGTCTCGG,-0.235
15,ATCAGTTC,0.172
16,AGTTTTTA,0.127
17,AGCTGGTA,-0.142
18,ACTGGACG,-0.063
19,AATGACAA,0.101
20,CACTTCCG,-0.0487
21,AACTGGCT,-0.252
22,AGAGTCTC,-0.0574
23,AGTCTGTG,-0.0944
24,AGGTTGGG,-0.175
25,AGATATAT,0.316

row,Sequence,binding signal [E-score]
1,AACACGTG,-0.0376
2,AGTGTTGA,0.0172
3,AACGACCT,-0.247
4,AATGGAGC,-0.11
5,ACCTACAA,-0.0976
6,AGGGAGAG,-0.217
7,AACGACCG,-0.134
8,ATATGCGA,0.229
9,CACGCAGG,-0.215
10,AATTTATA,0.264
11,AAGACCCG,-0.353
12,AACCTTGC,-0.154
13,ATGTATGC,0.107
14,AGCTCACT,-0.201
15,AAGGCTCG,-0.248
16,ACTGGCTC,-0.288
17,AGTCTTGC,-0.0302
18,AGTTTATA,0.158
19,ATCTTCGG,0.284
20,ATGACATA,-0.0949
21,AGAAACCC,-0.18
22,ATAACGAT,0.216
23,ACGCAAAA,0.172
24,ATTAGTCC,-0.131
25,AAGCGAGC,-0.108

row,Sequence,binding signal [E-score]
1,CAACGCCG,-0.25
2,AACTGTAC,-0.167
3,AGGAGTCG,-0.166
4,ACAATCAA,0.223
5,ATAACTTC,0.0418
6,AACGGCTT,-0.157
7,CAAGCCCC,-0.19
8,ACTTCACC,-0.0899
9,AATATAGC,0.193
10,AGTCCATG,-0.194
11,AGGTGCGC,-0.279
12,AGCCCTCG,-0.306
13,AAAAGGTC,-0.119
14,ACTTTGCA,-0.0392
15,ATCCAATC,0.254
16,ACAGGCGG,-0.142
17,AGCGAACT,-0.285
18,ATCGACTC,0.072
19,AACTCGAG,-0.125
20,AGGACGCC,-0.274
21,AACCCGTC,-0.191
22,AGGCGTGC,-0.222
23,AATGCTCC,-0.241
24,ACCTATCG,-0.0273
25,AGGGGAAC,-0.142

row,Sequence,binding signal [E-score]
1,ACTGTCCC,-0.0963
2,AACAACCT,-0.189
3,AATTGATA,0.13
4,CACCCATG,-0.193
5,CAAGGCAC,-0.245
6,ACCTGCAA,-0.0581
7,AACCTTAC,-0.196
8,ACCCGGGC,-0.195
9,ACAACAAA,0.0662
10,ACTCGTTC,-0.102
11,AATTGTGT,0.123
12,ACTTGTCG,-0.195
13,AGATTACC,0.459
14,ATTCATCG,0.0633
15,ACCAAGCC,-0.183
16,AGTGGTCG,-0.215
17,CAACACAC,-0.139
18,AAGGTAGA,0.0394
19,ATTCCAGG,0.13
20,AGCTAACA,-0.0913
21,ATCGGAGC,0.0219
22,ATTTACGA,0.191
23,ACGTGGCC,-0.258
24,CACCTTAA,-0.126
25,AGATGGCT,-0.13

row,Sequence,binding signal [E-score]
1,CACATATA,0.0872
2,AACTTCAT,-0.0823
3,ACATGAGT,0.0378
4,ACTCCAAC,-0.176
5,ACTGAGGA,0.00353
6,ACTTGCTA,-0.107
7,ATCTGCTC,0.147
8,ACTTGTCC,-0.173
9,AAAGTACT,-0.0835
10,AGTTGCGA,0.00658
11,AACAGGTG,-0.202
12,ACCGCGGA,-0.0687
13,AGCTGGTC,-0.341
14,ATCCTAGA,0.263
15,ACTATCTG,0.13
16,CACGTCCG,-0.157
17,AGTGCGTC,-0.207
18,AAGCTGGT,-0.248
19,ATGATGTC,-0.0895
20,AGTTCCCC,-0.181
21,CACTTGTC,-0.175
22,ATGGGCTC,-0.138
23,AAGAAATC,0.443
24,AATTTTTA,0.181
25,ACTGATAG,-0.0397

row,Sequence,binding signal [E-score]
1,AAGCGCCG,-0.199
2,AACTCATC,-0.179
3,ATGCGGGA,-0.0269
4,ACGCGGAA,0.0172
5,AGGCATAG,-0.185
6,AGAATTAG,0.0695
7,AGTATCCA,0.265
8,AAAAAGTT,0.0636
9,AAAGCCCG,-0.294
10,ACACAGAA,0.0891
11,AACCGCAT,-0.141
12,AGCAACTC,-0.0471
13,ACAGTAGA,0.0173
14,CAACGCGC,-0.0169
15,AACATCCA,0.0573
16,ACAGTACA,0.00516
17,ACCTCCGC,-0.262
18,ATAGACGC,-0.133
19,AAACAGGT,-0.0999
20,AATTATAG,0.124
21,ACCTAGCC,-0.106
22,ACACCCCG,-0.166
23,AGCGCTTG,-0.131
24,AGGTACTA,-0.116
25,ATTGGATG,0.0536

row,Sequence,binding signal [E-score]
1,AGGTAATC,0.416
2,ATGCGAAG,-0.0716
3,AAGCAGTC,-0.212
4,AATCCTAA,0.395
5,AGCGAAAA,0.0195
6,ACCTCAAA,-0.0253
7,AGTTGAGC,-0.138
8,AGGCTTCC,-0.353
9,ATTAAGGA,0.0905
10,ATTGGTCA,0.0284
11,AAGTATAA,0.165
12,ATGGGTGC,-0.0894
13,ATGTGTAG,0.045
14,AAGGTACC,-0.115
15,AACTCTCC,-0.0732
16,AGTACTAG,-0.0845
17,AAGGCCCG,-0.243
18,AGGTTTTC,-0.102
19,ATCTGATG,0.241
20,ACGGTTAA,-0.0147
21,ATTTAGAG,0.0647
22,AAAGTAGC,-0.124
